PubChem BioAssay AID198 (DTP/NCI, 2004)
Toxic doses and inconclusive results are not listed. For part of its entries the source gives two or more results. This is not the full list of results. The source may hold further records. The records of an entry differ for a reason that is not stated; they may come from other doses, times, organisms or constructs than stated.

Test system: B16 melanoma ip, C57BL/6 mice, median survival T/C
Experiment: NCI In Vivo Anticancer Drug Screen. Data for tumor model B16 Melanoma (intraperitoneal) in C57BL/6 mice
Settings: endpoint: median survival time, schedule: Q01DX009 (ip), vehicle: saline, higher = longer survival
Procedure: The antitumor activity of compounds was measured in mice bearing transplantable tumors. Survival or tumor size were measured and the results are expressed as the measurement made in the treated group (T) divided by the measurement made in the vehicle treated control group (C). The tumor model used in this assay is B16 Melanoma (intraperitoneal) in C57BL/6 mice

Structure (SMILES)	T/C (dose: 50.0 mg/kg/injection)	T/C (dose: 0.38 mg/kg/injection)
O=P1(N(CCCl)CCCl)NCCCO1 (configuration not stated)	96 % of control and 153 % of control	–
O=c1[nH]cc(N(CCCl)CCCl)c(=O)[nH]1	–	109 % of control, 112 % of control, 157 % of control
